Experimental data as given in PubChem BioAssay AID360 (National Center for Advancing Translational Sciences (NCATS), 2006).
About 550 (1.1%) of roughly 48,000 compounds were called active. Another 4% or so got no clear call; they are omitted. Cut-off read from the data, not from the text of the source: active = potency below about 15 µM; inconclusive = mostly about 16 µM to 33 µM; inactive = weaker than that. The list shows a part of the results.

Biological target: Lysosomal acid glucosylceramidase (Homo sapiens) (UniProt P04062)
UniProt P04062, sequence (P04062 whole entry, looked up): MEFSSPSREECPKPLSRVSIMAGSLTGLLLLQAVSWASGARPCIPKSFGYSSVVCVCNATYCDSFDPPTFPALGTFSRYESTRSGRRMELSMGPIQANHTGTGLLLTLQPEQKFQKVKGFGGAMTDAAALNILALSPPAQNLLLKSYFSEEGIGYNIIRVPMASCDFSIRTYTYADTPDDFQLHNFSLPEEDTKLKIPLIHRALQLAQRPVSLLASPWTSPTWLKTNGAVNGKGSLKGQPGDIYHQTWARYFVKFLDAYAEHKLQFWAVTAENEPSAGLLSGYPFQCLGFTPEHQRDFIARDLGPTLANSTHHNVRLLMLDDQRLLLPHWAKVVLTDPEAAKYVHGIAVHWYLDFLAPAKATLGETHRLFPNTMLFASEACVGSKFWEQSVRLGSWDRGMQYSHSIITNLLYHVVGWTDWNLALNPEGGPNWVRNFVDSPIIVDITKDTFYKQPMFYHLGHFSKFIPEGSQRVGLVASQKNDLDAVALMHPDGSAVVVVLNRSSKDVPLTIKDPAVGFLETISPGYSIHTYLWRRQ
Experiment: Glucocerebrosidase;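 note: the screen sought inhibitors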
Settings: purified enzyme, resorufin glucoside fluorescence (screen aimed at inhibitors), 20 min
In short: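 Compounds titrated against 0.2 nM normal enzyme, 30 uM resorufin beta-D-glucopyranoside substrate, citrate/phosphate buffer with taurocholate and tween-20, pH 5.9. Reaction ran 20 min at room temperature; fluorescence (Ex 548/Em 600) gave AC50.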
Potency is the fitted concentration of half-maximal effect.

SMILES	Potency
COc1cc(NC(=O)c2ccccc2)cc(OC)c1	inactive: > 76.9 µM
Cc1cc(Cl)ccc1OCC(=O)Nn1c(C)ccc1C	inactive
CCCc1cc(C(N)=O)c(NC(=O)c2ccco2)s1	inactive: > 76.9 µM
Cc1ccc(N2C(N)=C(C#N)C(c3cccnc3)C3=C2CC(C)(C)CC3=O)cc1 (configuration not stated)	inactive: > 76.9 µM
CCNC(=O)CN(c1ccc(OC)c(OC)c1)S(=O)(=O)c1ccccc1	inactive: > 76.9 µM
Nn1c(SCc2csc(-c3ccccc3)n2)nnc1-c1cccs1	inactive: > 76.9 µM
COc1ccc(-c2cc(C(F)(F)F)nc(N3CCN(c4ccc(F)cc4)CC3)n2)cc1OC	inactive: > 76.9 µM
CCOc1cc(C)c(S(=O)(=O)Nc2ccc(Cl)cn2)cc1C	inactive
O=c1c2cc(N3CCOCC3)ccc2[nH]c(=S)n1CCCN1CCCC1	inactive: > 76.9 µM
CC(NC(=O)NCC1CCCO1)(C(F)(F)F)C(F)(F)F (configuration not stated)	inactive: > 76.9 µM
CSc1nnc(-c2cnccn2)n1CCCN1CCCC1=O	inactive: > 76.9 µM
Cn1c(CCNC(=O)c2ccco2)nc2cc(NC(=O)NC3CCCCC3)ccc21	inactive: > 76.9 µM
O=C(O)C1CCCN1S(=O)(=O)c1ccc2c(c1)CCC2 (configuration not stated)	inactive: > 76.9 µM
Cc1csc(NC(=O)c2cccc(Cn3nc(C)c(Br)c3C)c2)n1	inactive: > 76.9 µM
COc1ccc2[nH]c(=O)c(CN(CC3CCCO3)C(=O)Nc3ccccc3)cc2c1 (configuration not stated)	inactive: > 76.9 µM
COC(=O)C1=C(C)NC(=O)CC1c1cc(Br)ccc1F (configuration not stated)	inactive: > 76.9 µM
O=C(Nc1cccnc1)c1c(F)c(F)c(F)c(F)c1F	inactive: > 76.9 µM
O=C(Nc1ccc(N2CCCCC2)c(C(=O)O)c1)c1ccco1	inactive: > 76.9 µM
Cc1cc(C(=O)COc2cccc3cccnc23)c(C)n1C	inactive: > 76.9 µM
COCCn1c(Cc2ccccc2)nnc1SCC(=O)NC(C)C	inactive: > 76.9 µM
CCN(CC)S(=O)(=O)c1cccc(-c2nnc(SCC(=O)c3cc(C)n(C)c3C)o2)c1	inactive: > 76.9 µM
COc1ccccc1NC(=O)Cn1c(CN2CCCCC2)nc2ccccc2c1=O	inactive: > 76.9 µM
CC(C)C(c1nnnn1CCc1ccccc1)N1CCOCC1 (configuration not stated)	inactive: > 76.9 µM

SMILES	Potency
Cc1ccc(C)c(NC(=O)CSc2nnc([C@@H]3CCCN3C(=O)OC(C)(C)C)o2)c1	inactive: > 76.9 µM
CCOC(=O)CCCNC(=O)COC(=O)c1cccc(C)c1O	inactive: > 76.9 µM
Nn1c(SCC(=O)NC(=O)NC2CCCC2)nnc1-c1ccccc1F	inactive: > 76.9 µM
CCCCCn1c(CNC(=O)COC)nc2ccccc21	inactive: > 76.9 µM
O=C(COc1ccccc1)Nc1ccccc1N1CCCCC1	inactive: > 76.9 µM
COc1ccc(-c2nnc(NC(=O)c3ccc(S(=O)(=O)N4CCc5ccccc5C4)cc3)o2)cc1	inactive: > 76.9 µM
CC12CS(=O)(=O)CC1SC(=S)N2c1ccccn1 (configuration not stated)	inactive: > 76.9 µM
CC(Sc1ccc2c(c1)OCCO2)C(=O)Nc1ccc2c(c1)OCO2 (configuration not stated)	active: 15 µM
CC(=O)Cc1ccccc1OCC(=O)O	inactive: > 76.9 µM
Cc1cn2nc(N)c3ccccc3c2n1	inactive: > 76.9 µM
O=C(Cc1ccccc1)Nc1ccc(-c2nnc(-c3ccco3)o2)cc1	inactive: > 76.9 µM
O=C(NC1CCCCCC1)C1CCCN(S(=O)(=O)c2cccs2)C1 (configuration not stated)	inactive: > 76.9 µM
Cc1ccc(NS(=O)(=O)c2cc(C(=O)N3CCOCC3)ccc2C)cc1C	inactive: > 76.9 µM
O=C(c1ccc2ccccc2c1)N1CCN(c2ccccc2)CC1	inactive: > 76.9 µM
CCCc1cc(=O)n2[nH]c(NCc3c(F)cccc3Cl)nc2n1	inactive: > 76.9 µM
Cc1nnc(N2CCc3ccccc3C2)[nH]c1=O	inactive: > 76.9 µM
O=C(CSc1nc2ccccc2s1)N1CCOCC1	inactive: > 76.9 µM
COc1ccc(CCNC(=O)CSc2nnnn2Cc2ccc3c(c2)OCO3)cc1OC	inactive: > 76.9 µM
COc1ccc(-n2c(=O)cc(N3CCN(c4ccccc4)CC3)[nH]c2=O)cc1	inactive: > 76.9 µM
Cc1cccc(NC(=O)CSCc2c(C)noc2C)c1C	inactive: > 76.9 µM
Cc1onc(-c2ccccc2Cl)c1C(=O)Nc1ccc(S(=O)(=O)NCC2CCCO2)cc1 (configuration not stated)	inactive: > 76.9 µM
CCN(CC)CCn1c(=S)[nH]c2cc(Cl)ccc2c1=O	inactive: > 76.9 µM
O=C(COC(=O)Cn1cnc2ccccc21)NCCC1=CCCCC1	inactive: > 76.9 µM

SMILES	Potency
CCC(=O)Nc1ccc2nc(C)n(CC(=O)Nc3ccccc3)c(=O)c2c1	inactive: > 76.9 µM
CC1(C)NC(=O)N(CNc2cc(Cl)ccc2Cl)C1=O	inactive: > 76.9 µM
Cc1nc(SCn2nnc3ccccc3c2=O)nc(C)c1C	inactive: > 76.9 µM
O=C(c1cc2n(n1)C(C(F)(F)F)CC(c1ccc(Cl)cc1)N2)N1CCCC1 (configuration not stated)	inactive: > 76.9 µM
O=C(CSc1nnc(CNC(=O)c2ccco2)o1)NC1CCCC1	inactive: > 76.9 µM
O=C(c1ccco1)N(Cc1ccco1)c1ccc(O)cc1	inactive: > 76.9 µM
Cc1cccc(N2CCN(C(=O)c3cc4c(=O)[nH]c5ccccc5c4n3C)CC2)c1C	inactive: > 76.9 µM
CCn1nccc1C(=O)NC1=C(C#N)CCC1	inactive: > 76.9 µM
COc1ccc(N(CC(=O)Nc2cccc(C)c2)S(=O)(=O)c2c(C)n[nH]c2C)cc1	inactive: > 76.9 µM
CCOC(=O)N1CCC(NC(=O)CCC(=O)N2CCOc3ccc(C)cc32)CC1	inactive: > 76.9 µM
CC1(C)CC(=O)c2sc(N)nc2C1	inactive: > 76.9 µM
O=C1CC(N2CCCCCC2)C(=O)N1c1ccc2c(c1)OCO2 (configuration not stated)	inactive: > 76.9 µM
CC(=O)c1ccc(NC(=O)CSc2nnc(-c3ccoc3C)n2Cc2ccccc2)cc1	inactive: > 76.9 µM
COc1ccc(CCNS(=O)(=O)c2cccc(C(=O)O)c2)cc1OC	inactive: > 76.9 µM
OC1CCN(c2c3c(nc4cc(-c5cccc(F)c5)nn24)CCCC3)CC1	inactive
COc1ccc(C2C(=O)N(C3CCCCCC3)CC(=O)N2Cc2ccccc2)cc1OC (configuration not stated)	inactive: > 76.9 µM
CCc1nnc(SCC(=O)NC2CCCCC2)nc1CC	inactive: > 76.9 µM
Fc1ccc2nc(N3CCCCC3)sc2c1	inactive: > 76.9 µM
COc1ccc(N2C(=O)CC(NCc3cccs3)C2=O)cc1 (configuration not stated)	inactive: > 76.9 µM
CC(=O)Nc1cccc2c1OCCO2	inactive: > 76.9 µM
O=C(CCCSc1nc2ccccc2[nH]1)Nc1nnc(-c2ccccc2)o1	inactive: > 76.9 µM
CCOc1ccc(-n2nc(C(=O)NCCOC)c3ccccc3c2=O)cc1	inactive: > 76.9 µM
CCCn1cnc2c(c1=O)c1nc3ccccc3nc1n2Cc1ccccc1OC	inactive: > 76.9 µM

SMILES	Potency
Cc1cccc(OCC(O)Cn2c(NCCCOC(C)C)nc3c2c(=O)[nH]c(=O)n3C)c1 (configuration not stated)	inactive: > 76.9 µM
COc1ccccc1C(=O)OCC(=O)Nc1ccc(OC(F)F)cc1	inactive: > 76.9 µM
Cc1ccc(-c2cc(C(F)F)n3ncc(C(=O)NCc4ccco4)c3n2)cc1	inactive: > 76.9 µM
COc1cccc(-c2nnc(SCC(=O)OC(C)C)n2N)c1	inactive: > 76.9 µM
CCOc1ccccc1N1CCN(S(=O)(=O)c2cccc3nsnc23)CC1	inactive: > 76.9 µM
O=C(NCN1C(=O)C2C3C=CC(C3)C2C1=O)Nc1ccccn1 (configuration not stated)	inactive: > 76.9 µM
CCOC(=O)N1CCC(NC(=O)CCc2nc(-c3ccc(C)cc3)no2)CC1	inactive: > 76.9 µM
COC(=O)C1=C(C)N(c2ccc(OC)c(OC)c2)C(=O)C1	inactive: > 76.9 µM
O=C(N1CCN(c2ccccn2)CC1)N1c2ccccc2Sc2ccccc21	inactive
CCOC(=O)CNC(=O)Nc1cc(C(C)(C)C)nn1-c1ccccc1	inactive: > 76.9 µM
CC(C)CCn1c(=O)c2ccccc2n2c(CN3C(=O)NC4(CCC(C)CC4)C3=O)nnc12 (configuration not stated)	inactive: > 76.9 µM
C=CCn1c(SCc2cc(C(=O)OC)c(C)o2)nnc1-c1ccncc1	inactive: > 76.9 µM
CCc1ccc(NC(=O)c2cc(-c3ccc(OC)cc3)on2)cc1	inactive: > 76.9 µM
Cc1ccc(NC(=O)Cc2nn(C)c(=O)c3ccccc23)cc1F	inactive
CCN(CC)CCN1C(=O)C(O)=C(C(=O)c2sc(C)nc2C)C1c1cccnc1 (configuration not stated)	inactive: > 76.9 µM
O=S(=O)(NCc1ccccn1)c1ccc2c(c1)OCCO2	inactive: > 76.9 µM
O=C(CN1CCOCC1)N1CCc2ccccc2C(c2ccccc2)C1 (configuration not stated)	inactive: > 76.9 µM
COc1ccccc1NC(=O)Cn1cnc2sc(C(=O)NCc3ccco3)c(C)c2c1=O	inactive: > 76.9 µM
CCOc1cc(NC(=O)C2CCCO2)c(OCC)cc1NC(=O)C1CC1 (configuration not stated)	inactive: > 76.9 µM
CC(C)NC(=O)c1n[nH]c(=O)c2ccccc12	inactive: > 76.9 µM
CS(=O)(=O)N1CCC(c2noc(-c3ccc(C(F)(F)F)cc3)n2)CC1	inactive: > 76.9 µM
CCOc1ccc(-n2cc(C(=O)N3CCC(C)CC3)c3cc(OC)c(OC)cc3c2=O)cc1	inactive: > 76.9 µM
Nn1c(SCC(=O)Nc2ccc(S(=O)(=O)N3CCCC3)cc2)nnc1C(F)(F)F	inactive: > 76.9 µM
